Results on 97 compounds are retold here after PubChem BioAssay AID1159614 (National Center for Advancing Translational Sciences (NCATS), 2016).

Out of some 45,000 compounds screened, about 65 (0.1%) were called active. Calls follow the shape of the dose curve; as a rule, active = well fitted activation curve with a large enough effect; inconclusive = small, poorly fitted or top-dose-only effect; inactive = no such curve, though single readings can be large or run the other way. Some of the results follow.

Sequence of UniProt P54803 (P54803 whole entry, looked up): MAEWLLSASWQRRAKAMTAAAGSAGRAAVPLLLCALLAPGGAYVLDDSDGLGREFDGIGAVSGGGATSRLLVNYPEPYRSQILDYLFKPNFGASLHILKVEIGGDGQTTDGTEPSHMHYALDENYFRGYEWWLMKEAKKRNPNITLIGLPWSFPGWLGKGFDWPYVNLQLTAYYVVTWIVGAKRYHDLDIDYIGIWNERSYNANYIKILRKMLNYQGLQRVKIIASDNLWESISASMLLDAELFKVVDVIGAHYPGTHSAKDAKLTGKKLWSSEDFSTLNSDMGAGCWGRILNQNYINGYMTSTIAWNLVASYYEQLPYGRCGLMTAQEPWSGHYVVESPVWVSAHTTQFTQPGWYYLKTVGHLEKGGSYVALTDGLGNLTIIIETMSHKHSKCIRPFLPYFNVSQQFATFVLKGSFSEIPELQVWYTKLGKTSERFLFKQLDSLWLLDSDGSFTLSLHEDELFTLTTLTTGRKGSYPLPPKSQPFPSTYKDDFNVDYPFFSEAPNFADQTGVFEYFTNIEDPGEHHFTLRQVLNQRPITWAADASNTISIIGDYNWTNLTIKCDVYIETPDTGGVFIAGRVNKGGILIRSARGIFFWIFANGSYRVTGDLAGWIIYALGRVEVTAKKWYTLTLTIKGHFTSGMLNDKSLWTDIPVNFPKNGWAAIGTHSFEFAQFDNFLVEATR

The target of the assay is Galactocerebrosidase (Homo sapiens) (UniProt P54803). The assay is described as follows: A Novel Cell-Based Assay to Identify Small Molecules for B -Galactocerebrosidase. Also: 0% is about no effect; nearly all actives have a fitted effect of over 65% in size. Conditions: 145M-Twi-hGALC-G270D cells (Twitcher mouse brain line with human GALC G270D), HMU-beta-Gal fluorescence, 48 h; series mostly up to 57.5 µM; activation: at the top concentration. Summed up:
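Brain-derived Twitcher mouse 145M-Twi cells stably expressing human GALC-G270D or wild-type GALC, treated live, then residual GALC activity read by fluorescence of HMU-b-Gal substrate (0.1 mM final) in citrate-phosphate buffer pH 5.2 with sodium taurocholate. Signal increase indicates enhancement.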
As to `Cc1ccc(C(=O)Nc2nc3n(n2)C(c2ccc(F)cc2)C=C(c2ccccc2)N3)cc1` (configuration not stated), the “activation” value was inactive: -9.77%.
Next, `CCOC(=O)c1c(NC(=O)c2ccc(Br)cc2)sc2c1CCCC2`: inactive: -22.8%.
To `Cc1nn(C)c2c1c(C(F)(F)F)cc(=O)n2CC(=O)N1CCCCC1` belongs inactive: -4.67%; to `O=C(O)c1cccc(Nc2ncnc3ccc(Br)cc23)c1`, inactive: 13.7%.
To `CCOc1ccccc1-n1nnc(-c2nc(-c3ccccc3C)no2)c1C` belongs inactive: -12.2%; to `Cc1ccc2nc(-c3cccc(NC(=O)c4ccc(Br)o4)c3)oc2c1`, inactive: -7.29%.
As to `COc1ccc(C(=O)Nc2nnc(S(=O)(=O)N3CCCc4ccccc43)s2)cc1`, the “activation” value is inactive: -10.7%.
To `O=C(Nc1ccc(F)c(Cl)c1)C1CCN(S(=O)(=O)c2ccc3[nH]c(=O)ccc3c2)CC1` belongs inactive: -18.4%; to `CCCCNc1nc2c(c(=O)n(C)c(=O)n2C)n1CC(O)COc1ccccc1C` (configuration not stated), inactive: -18.5%.
Turning to `Cc1ccc2cc(CN(C)C(=O)c3cccc(Cl)c3)c(=O)[nH]c2c1`, the “activation” value was inactive: -15.4%.
In the case of `Cc1ccccc1NC(=O)c1cccc2c(=O)c3c([nH]c12)CCCC3`, the “activation” value is inactive: -14%.
To `Cc1ccc(NC(=O)CSc2ccc3nnc(CCNS(=O)(=O)c4ccccc4)n3n2)cc1Cl` belongs inactive: -5.78%.
To `Cc1ccc(Cl)cc1NC(=O)N1CCC(CN2CCCCCC2)CC1` belongs inactive: -5.17%; to `CCCCC(=O)OCc1cc(=O)n2nc(C3CCCCC3)sc2n1`, inactive: -5.43%; to `Cc1cccc(Nc2ccccc2C(=O)O)c1C`, inactive: -16.8%.
Next, `CCC1CN(C(=O)Nc2cc(C)ccc2OC)c2cc(Cl)ccc2O1` (configuration not stated): inactive: -7%; `Nc1ccc(/C=C/c2ccc(N)cc2S(=O)(=O)O)c(S(=O)(=O)O)c1`: inactive: -9.96% [at 0.46 µM].
Turning to `Cc1cccc(OCC(=O)Nc2c(C(=O)N3CCN(c4ccccc4F)CC3)oc3ccccc23)c1`, the “activation” value was inactive: -14.7%.
Regarding `CCOc1ccc(S(=O)(=O)Nc2ccc3oc(C)c(C(=O)OC(C)C)c3c2)cc1`, the “activation” value is inactive: -45.6%.
To `Cc1cc(C)cc(OCC(=O)NC(Cc2c[nH]c3ccccc23)C(=O)O)c1` (configuration not stated) belongs inactive: -5.01%; to `CCOc1cc(N)c(Cl)cc1C(=O)NCC1CN(Cc2ccc(F)cc2)CCO1` (configuration not stated), inactive: -14.4%; to `Cc1cc(C)n(-c2nc3ccccc3nc2Nc2ccc(Cl)c(Cl)c2)n1`, inactive: -9.09%.
Next, `COc1ccccc1NCc1cccn1-c1nnc(N2CCCCCC2)s1`: inactive: -11.6%; `COC(=O)c1ccc(NC(=O)CC2Nc3cc(C)c(C)cc3NC2=O)cc1` (configuration not stated): inactive: -16.4%.
As for `O=C(Nc1ccccc1)N(Cc1cccs1)c1ccc(F)cc1`, the “activation” value is inactive: -6.3%.
To `CCOC(=O)c1ccc(N2C(=O)c3[nH]nc(-c4ccc(OC)cc4)c3C2c2ccccc2Cl)cc1` (configuration not stated) belongs inactive: -11.2%; to `Cc1ccc(NC(=O)N2CCc3cc(S(=O)(=O)N4CCC(C)CC4)ccc32)cc1F`, inactive: -7.42%; to `CCCc1cc(=O)n2[nH]c(NC(=O)c3ccccc3Cl)nc2n1`, inactive: -6.63%.
Next, `CCOC(=O)N1CCN(C(=O)CN(c2cccc(Cl)c2)S(=O)(=O)c2ccccc2)CC1`: inactive: -8.96%; `CCCN(C(=O)c1cc2c(=O)oc3ccccc3c2s1)c1cccc(Cl)c1`: inactive: -3.55%; `Cc1ccc2onc(CC(=O)Nc3cccc(C(F)(F)F)c3)c2c1`: inactive: -1.69%.
Next, `COc1ccc(C2c3c(n(C)c4ccccc34)C(=O)N2CC(=O)Nc2cc(Cl)ccc2C)cc1` (configuration not stated): inactive: -0.907%; `CCc1cccc(NS(=O)(=O)c2ccc3c(c2)n(C)c(=O)c(=O)n3C)c1`: inactive: -3.9%.
`Cc1ccc(CNC(=O)CCCn2nc(C)c3c(C)n(-c4ccccc4)nc3c2=O)cc1`: the “activation” value was inactive: -10.4%.
`CCOC(=O)c1c(NC(=O)CSc2cn(CCNC(=O)c3ccc(OC)c(OC)c3)c3ccccc23)sc2c1CCCC2`: the “activation” value was inactive: -2.65%.
Next, `C[n+]1ccccc1/C=N/O`: inactive: -14.4%; `CCOC(=O)CSc1nc2cc3c(cc2c(=O)n1CCCC(=O)NCCc1ccc(OC)c(OC)c1)OCO3`: inactive: -8.13%; `CCOC(=O)c1sc(N2C(=O)c3oc4ccc(C)cc4c(=O)c3C2c2ccccc2F)nc1C` (configuration not stated): inactive: -20%.
Next, `COc1cccc(CNC(=O)c2cc(S(=O)(=O)N3CCCCCC3)cn2C)c1`: inactive: 9.21%; `CC(=O)Nc1nonc1-c1nnc(SCC(=O)Nc2cccc(F)c2)n1-c1ccccc1`: inactive: -7.65%; `Cc1ccc(N2CCN(S(=O)(=O)c3cc(C(=O)Nc4cc(Cl)cc(Cl)c4)ccc3F)CC2C)cc1` (configuration not stated): inactive: -4.14%.
To `CC(=O)c1ccc(NC(=O)C2Cc3ccccc3N2C(=O)c2ccccc2)cc1` (configuration not stated) belongs inactive: -9.24%.
With `Cc1ccc(CN2CCCn3nc(C(=O)NC(C)C)cc3C2=O)cc1`, the “activation” value is inactive: -12%.
To `COC(=O)c1scc(-c2ccc(C)cc2)c1S(=O)(=O)Nc1ccc(F)cc1F` belongs inactive: -1.83%; to `CN1CCN(c2c(F)cc3c(=O)c(C(=O)O)cn4c3c2SCC4)CC1`, inactive: -6.1%.
As for `Cc1nn(CC(=O)NCc2ccc(Cl)cc2)c(=O)c2cc3sccc3n12`, the “activation” value was inactive: -11.5%.
Next, `O=C(Nc1ccc2oc(-c3cccnc3)nc2c1)c1ccc(Br)cc1`: inactive: -3.05%.
`COc1ccc(NC(=O)Cn2c(=O)n(Cc3nc(-c4ccccc4)no3)c(=O)c3cc4c(cc32)OCO4)c(OC)c1`: the “activation” value was inactive: -14.2%.
To `COc1ccc(Oc2c(C(F)(F)F)oc3c(CN4CCCC(C)C4)c(O)ccc3c2=O)cc1` (configuration not stated) belongs inactive: 9.02%; to `CNc1c2c(nn1C)CCCC2`, inactive: -13.5%.
Next, `Cc1ccc(NC(=O)Cn2cc3c(n2)CCCC3)c(Cl)c1`: inactive: -6.5%; `COc1ccccc1N1CCN(c2ccc(=O)n(CC(=O)NCc3ccc(OC(C)C)cc3)n2)CC1`: inactive: 5.49%.
To `CN(C)S(=O)(=O)c1ccc2c(c1)N(CC(=O)NCc1ccc(F)cc1)C(=O)CS2` belongs inactive: -11.5%.
With `COc1ccc(C)cc1NC(=O)Cn1c(=O)c(C(F)(F)F)nc2ccccc21`, the “activation” value was inactive: -11.6%.
To `O=C(Nc1ccc2oc(-c3cccnc3)nc2c1)c1ccc(-c2ccccc2OC(F)(F)F)o1` belongs inactive: -9.08%.
To `COc1ccc(-n2nc(C(=O)Nc3cc(OC)c(OC)c(OC)c3)c(=O)n(C)c2=O)cc1` belongs inactive: -15.1%; to `COc1ccc(-c2cc3ccc(O)c(CN4CCC(C)CC4)c3oc2=O)cc1`, inactive: -24.3%; to `CC1=C(c2ccc(C)cc2)S(=O)(=O)NC1=NCCCN1CCN(c2ccccc2F)CC1`, inactive: -14.1%.
To `COc1ccc(-n2nc(C(=O)N3CCN(c4ccc(F)cc4)CC3)c3c4ccccc4n(C)c3c2=O)cc1` belongs inactive: -9.97%; to `Cc1cccc(-c2nc3scc(CCNS(=O)(=O)c4ccc(Oc5ccccc5)cc4)n3n2)c1`, inactive: -4.57%.
Turning to `Cc1nn(C)c2c1c(C(F)(F)F)cc(=O)n2CC(=O)NCCC(C)C`, the “activation” value is inactive: -6.47%.
Regarding `O=C(O)c1ccc(Nc2nc3ccccc3n3cnnc23)cc1`, the “activation” value is inactive: -1.67%.
To `CCc1ccc(-c2nn(CC(=O)NC3CCCCC3)c3c2cnc2ccc(C)cc23)cc1` belongs inactive: -16.3%.
Next, `CCc1ccccc1NS(=O)(=O)c1ccc2c(c1)CCN2C(=O)C1CC1`: inactive: 4.05%; `c1ccc(N2CCN(Cc3cccn3-c3nnc(N4CCN(C5CCCCC5)CC4)s3)CC2)cc1`: inactive: -20.2%.
Next, `CCN(c1ccccc1C)S(=O)(=O)c1ccc(N2CCCCS2(=O)=O)cc1`: inactive: -15%.
Regarding `O=C(CN1CCN(Cc2cccc(Cl)c2)C1=O)NCc1ccc(F)cc1`, the “activation” value was inactive: -11.9%.
Next, `COc1ccc(C2CC(=O)N(Cc3ccc(F)cc3)c3ccccc3S2)cc1OC` (configuration not stated): inactive: -16.4%; `COc1ccccc1C(=O)NCCn1cc(SCc2ccc(C)cc2)c2ccccc21`: inactive: -11.4%.
For `CCCCCn1c(=O)[nH]c2cc(C(=O)NCc3ccc(Cl)cc3)ccc2c1=O`, the “activation” value was inactive: 0.796%.
To `CCC1CCc2nc3sc(C(=O)Nc4ccc(C)cc4)c(N)c3cc2C1` (configuration not stated) belongs inactive: -12.2%; to `COc1ccc(OC)c2sc(N3CCN(C(=O)c4ccc5c(c4)CCCC5)CC3)nc12`, inactive: -1.68%.
As for `Cn1c(=O)c2cc(C(=O)NCCCN3CCN(c4cccc(Cl)c4)CC3)sc2c2ccccc21`, the “activation” value was inactive: -12.4%.
Next, `Cc1nn(-c2ccccc2)c(-n2cccc2)c1C(=O)NCCc1ccc(Cl)cc1`: inactive: -0.691%; `CCOc1ccc(CCNC(=O)c2nn(-c3ccc(OC)c(Cl)c3)c(=O)c3c2c2ccccc2n3C)cc1OCC`: inactive: -13.2%; `COc1ccc(OCC(=O)Nc2ccc3c(c2)nc(CCNC(=O)c2ccco2)n3C)cc1`: inactive: 11.7%.
`CCc1ccc(NC(=O)CSc2nc(-c3ccccc3Cl)nc3c2Cc2c(CO)cnc(C)c2O3)cc1`: the “activation” value is inactive: -11.4%.
For `CC(C)NC(=O)c1ccc(-n2c(-c3ccccc3)cc3c2CCCC3)cc1`, the “activation” value is inactive: -25.5%.
Next, `CC(C)Cn1c(=O)c2sccc2n2c(CCCC(=O)NCCc3ccc(Cl)cc3)nnc12`: inactive: -10.3%; `O=C(Nc1ccc(Br)cc1)c1ccc(F)c(S(=O)(=O)N2CCCc3ccccc32)c1`: inactive: 6.83%.
As to `O=C(COc1ccc(Br)cc1Cl)Nc1ncn[nH]1`, the “activation” value is inactive: -5.75%.
To `CCOC(=O)c1ccc(CN(Cc2ccc(Cl)cc2Cl)S(=O)(=O)c2ccc(F)c(C)c2)cc1` belongs inactive: -21.5%; to `CCc1ccc2nc(N(Cc3cccnc3)C(C)=O)sc2c1`, inactive: -37%.
With `CCCCn1c(=O)c2oc3ccccc3c2n(Cc2cccc(F)c2)c1=O`, the “activation” value is inactive: -0.143%.
As to `CCC(C)Cn1c(/C=C/c2ccccc2)nc2ccccc21` (configuration not stated), the “activation” value was inactive: -16.2%.
To `Cc1ccc(S(=O)(=O)C(CNC(=O)c2ccc(F)c(F)c2)c2ccco2)cc1` (configuration not stated) belongs inactive: -13.4%.
To `CCS(=O)(=O)c1ccc(O)c(Nc2cc(C)nc(SC)n2)c1` belongs inactive: -9.44%.
On to `CCC(=O)C1=C(c2ccc(Cl)cc2)N(C(=O)CC)n2c(C)nnc2S1`, for which the “activation” value is inactive: -38.4%.
Next, `O=C(CSc1oc(-c2ccco2)nc1S(=O)(=O)c1ccc(Br)cc1)c1ccccc1`: inactive: -27.4%; `Cc1ccc(NC2=C(CC(=O)O)C(c3ccc(F)cc3)N(c3ccc(C)cc3)C2=O)cc1` (configuration not stated): inactive: -10.5%.
Next, `O=C(CCCN1C(=O)c2cccnc2Oc2ccc(Cl)cc21)NCc1ccccc1F`: inactive: -4.77%; `CC1CCN(S(=O)(=O)c2nnc(NC(=O)c3ccc(C(C)C)cc3)s2)CC1`: inactive: -9.03%.
To `CC(C)c1cnc2c(c1SCC(=O)Nc1ccc(OC(F)(F)F)cc1)c(=O)n(C)c(=O)n2C` belongs inactive: -14.8%; to `CCN(CC)CCOC(=O)c1ccc(NC(=O)c2nn(C)c3c2COc2ccccc2-3)cc1`, inactive: -4.47%; to `CCOC(=O)c1cccc(NC(=O)c2cc3c(=O)n(C)c4ccccc4c3n2C)c1`, inactive: -0.302%.
Take `CCc1nnc2c(Nc3cccc(F)c3)nc3ccc(C(=O)c4ccccc4)cc3n12`: the “activation” value was inactive: -11.7%.
Next, `Cc1cc(C)cc(NC(=O)c2ccc3c(c2)nnn3C2CCCC2)c1`: inactive: 17.6%.
